Laboratory results as given in patent publication US20240255507A1.

Columns and labels:
Assay in all cases: ELISA, antigen coated, binder 1 µg/mL, chemiluminescence
Settings in all cases: remark: other sources report otherwise
[1] = target: Zaria wild-type RBD (coronavirus Zaria strain (Hibecovirus subgenus))
[2] = target: GCCDC1 wild-type RBD (coronavirus GCCDC1 strain (Nobecovirus subgenus))
[3] = target: Hp wild-type RBD (coronavirus Hp strain (Hibecovirus subgenus))

| Binder | signal intensity [1] | signal intensity [2] | signal intensity [3] |
| --- | --- | --- | --- |
| REGN10987 (antibody) heavy: QVQLVESGGGVVQPGRSLRLSCAASGFTFSNYAMYWVRQAPGKGLEWVAVISYDGSNKYYADSVKGRFTISRDNSKNTLYLQMNSLRTEDTAVYYCASGSDYGDYLLVYWGQGTLVTVSS[sequence of human IgG1 constant region not given] light: QSALTQPASVSGSPGQSITISCTGTSSDVGGYNYVSWYQQHPGKAPKLMIYDVSKRPSGVSNRFSGSKSGNTASLTISGLQSEDEADYYCNSLTSISTWVFGGGTKLTVLRTVAAPSVFIFPPSDEQLKSGTASVVCLLNNFYPREAKVQWKVDNALQSGNSQESVTEQDSKDSTYSLSSTLTLSKADYEKHKVYACEVTHQGLSSPVTKSFNRGEC | 110 | 70 |  |
| REGN10933 (antibody) heavy: QVQLVESGGGLVKPGGSLRLSCAASGFTFSDYYMSWIRQAPGKGLEWVSYITYSGSTIYYADSVKGRFTISRDNAKSSLYLQMNSLRAEDTAVYYCARDRGTTMVPFDYWGQGTLVTVSS[sequence of human IgG1 constant region not given] light: DIQMTQSPSSLSASVGDRVTITCQASQDITNYLNWYQQKPGKAPKLLIYAASNLETGVPSRFSGSGSGTDFTFTISGLQPEDIATYYCQQYDNLPLTFGGGTKVEIKRTVAAPSVFIFPPSDEQLKSGTASVVCLLNNFYPREAKVQWKVDNALQSGNSQESVTEQDSKDSTYSLSSTLTLSKADYEKHKVYACEVTHQGLSSPVTKSFNRGEC | 70 |  | 60 |
